The values below come from the antibiotic and cytotoxicity screens of Wong et al. (2023).

The other results are listed elsewhere or left out.

One assay relates to HSkMC. Put plainly: cytotoxicity call (relative viability < 0.9). The settings on record: 10 µM.
In the next assay the test system is HepG2. Put plainly: cytotoxicity call (relative viability < 0.9). The settings on record: 10 µM.
The next assay has as its system S. aureus RN4220. Put plainly: growth inhibition call (relative growth <= 0.2). The settings on record: 50 µM.

Turning to `C[C@@H]1CN([C@H](C)CO)C(=O)c2cc(NS(=O)(=O)c3cn(C)cn3)ccc2O[C@@H](C)CCCCO[C@H]1CN(C)S(=O)(=O)c1ccc(F)cc1`, the cytotoxicity call in the assay with HSkMC and in the assay with HepG2 was “inactive” throughout. Also, in the assay on S. aureus RN4220, the growth inhibition call is “inactive”.
As to `C[C@H]1CCCCO[C@H](CN(C)C(=O)Nc2ccc3c(c2)OCO3)[C@@H](C)CN([C@@H](C)CO)C(=O)c2cc(NC(=O)Nc3ccc(C(F)(F)F)cc3)ccc2O1`, the cytotoxicity call in the assay with HSkMC and in the assay with HepG2 was “inactive” throughout. The growth inhibition call in the assay on S. aureus RN4220 is “inactive”.
Take `C[C@H](CO)N1C[C@H](C)[C@@H](CN(C)Cc2ccc(C(=O)Nc3ccccc3N)cc2)Oc2ccc(NS(=O)(=O)c3cn(C)cn3)cc2CC1=O`: the cytotoxicity call in the assay with HSkMC and with HepG2 was “inactive” in each case. In the assay on S. aureus RN4220, the growth inhibition call was “inactive”.
For `NCC(=O)NC1CCCCC1`, the cytotoxicity call in the assay with HSkMC and in the assay on HepG2 was “inactive” in each case. Further, the growth inhibition call in the assay with S. aureus RN4220 was “inactive”.
Take `CC(C)CNc1nc(=O)cn[nH]1`: the cytotoxicity call in the assay with HSkMC was “inactive”. Further, the cytotoxicity call with HepG2 was “active”. In addition, in the assay on S. aureus RN4220, the growth inhibition call is “inactive”.
Take `CC(=O)NCCCC[C@@H]1NC(=O)[C@H]2C[C@@H](C(=O)NCCCCCCN(C)C)[C@@H](c3cccc(OCCO)c3)N2C1=O`: the cytotoxicity call with HSkMC and with HepG2 was “inactive” throughout. Also, the growth inhibition call with S. aureus RN4220 was “inactive”.
Consider `CNS(=O)(=O)c1cc(OC)ccc1OC`, for which the cytotoxicity call in the assay with HSkMC and in the assay with HepG2 was “inactive” each time. Further, in the assay on S. aureus RN4220, the growth inhibition call was “inactive”.
Turning to `C[C@H](CO)N1C[C@H](C)[C@@H](CN(C)Cc2ccc(Cl)c(Cl)c2)Oc2c(NC(=O)CCCCCC(=O)Nc3ccccc3N)cccc2C1=O`, the cytotoxicity call in the assay on HSkMC and in the assay with HepG2 was “inactive” in each case. Besides, the growth inhibition call in the assay with S. aureus RN4220 is “inactive”.
Take `Cc1cc(C(C)(C)CC(C)(C)C)ccc1OCCOCC[N+](C)(C)Cc1ccccc1.[Cl-]`: the cytotoxicity call with HSkMC and in the assay with HepG2 was “active” throughout. Further, the growth inhibition call in the assay with S. aureus RN4220 is “active”.
With `COC(=O)C[C@](O)(CCCC(C)(C)O)C(=O)O[C@@H]1C(OC)=C[C@]23CCCN2CCc2cc4c(cc2[C@H]13)OCO4`, the cytotoxicity call in the assay on HSkMC and in the assay with HepG2 was “active” each time. In the assay on S. aureus RN4220, the growth inhibition call is “inactive”.
On to `C[C@H]1CCCCO[C@H](CN(C)C(=O)NC2CCCCC2)[C@@H](C)CN([C@@H](C)CO)C(=O)c2cc(NC(=O)Nc3ccc(C(F)(F)F)cc3)ccc2O1`, for which the cytotoxicity call in the assay on HSkMC (human skeletal muscle cells) is “inactive”. For the same compound, the cytotoxicity call in the assay on HepG2 is “active”. The growth inhibition call in the assay on S. aureus RN4220 was “inactive”.
With `C=CC[C@@H](CC(=O)NCCO)C(=O)NC[C@@H](OC(=O)[C@@H](CC=C)CC(=O)OC(C)(C)C)c1ccccc1`, the cytotoxicity call with HSkMC and in the assay with HepG2 was “inactive” throughout. In addition, in the assay with S. aureus RN4220, the growth inhibition call was “inactive”.
